Results as given in the supplement of paper PMC10126150.
Sequences with one replicate were seen in a single cluster, so their values are uncertain.

test system: ATP; assay: switch fluorescence ratio, 500 uM ATP over buffer (Cy3 cluster intensity, sum of 5 cycles each) (fold (ratio)); higher = stronger signal-on switching upon ATP binding; sequences stand for … in TCGTCGGCAGCGTCAGATGTGTATAAGAGACAGTTTTTTTTTTTTTTTTTTTTTTTTT…TC; settings: aptamer strand: ATP DNA aptamer (quencher-CACCTGGGGGAGTATTGCGGAGGAAGG + anchor), 100 nM annealed; ATP concentration: 500 uM; one replicate
Outline: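 Cy3-labelled switching-strand clusters on a modified Illumina MiSeq flow-cell were annealed to 100 nM quencher-labelled ATP aptamer and imaged first in selection buffer, then after 15 min with 500 uM ATP at 22 °C. NaOH stripping and re-annealing separated each of five buffer/ATP cycles, and clusters outside 100-1000 RFU were excluded. The fluorescence ratio sums target-cycle Cy3 intensity over buffer-cycle Cy3 intensity per cluster and averages it per switch-domain sequence.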
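Further: ATP exposure 15 min at 22 °C before imaging.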

Row | Sequence | switch fluorescence ratio
1 | AGGGTAACAG | 1.01
2 | AGGGTCTCAA | 0.991
3 | AGGGTGCCCA | 0.938
4 | AGGGTGCCTC | 0.961
5 | AGGGTGCTAG | 0.967
6 | AGGGTGGAGA | 1.01
7 | AGGGTGGCAC | 0.955
8 | AGGGTGGCAG | 0.983
9 | AGGGTGGCCG | 1.07
10 | AGGGTGTAAA | 0.996
11 | AGGGTGTCGT | 1.05
12 | AGGGTTAATA | 1.01
13 | AGGGTTGCG | 1.03
14 | AGGTACACTG | 1.06
15 | AGGTAGGAGA | 1.04
16 | AGGTAGGTAC | 0.982
17 | AGGTCATGGG | 0.974
18 | AGGTCCTCGG | 0.956
19 | AGGTCGCCGT | 1.05
20 | AGGTCGTGTA | 0.971
21 | AGGTCTTGG | 1.03
22 | AGGTCTTTTT | 0.969
23 | AGGTGACACT | 1.03
24 | AGGTGCACTG | 1.01
25 | AGGTGCCCCT | 1.04
26 | AGGTGCGATT | 1.01

Row | Sequence | switch fluorescence ratio
27 | AGGTGCTTAA | 1.06
28 | AGGTGGGTAG | 1.02
29 | AGGTGTCAGA | 1.07
30 | AGGTGTCTGC | 1
31 | AGGTTAGATT | 1.01
32 | AGGTTCCGAT | 0.991
33 | AGGTTGCCAA | 0.984
34 | AGGTTGCGCT | 0.99
35 | AGGTTTATC | 0.972
36 | AGGTTTCATC | 1.04
37 | AGTAAAGGAT | 0.992
38 | AGTAAATACT | 1.31
39 | AGTAAATAGG | 0.965
40 | AGTAACCGGT | 1.01
41 | AGTAAGAGAC | 1.03
42 | AGTAAGGTAA | 1.06
43 | AGTACATAGG | 1.11
44 | AGTACCCCCG | 1.19
45 | AGTACCGATC | 1.12
46 | AGTACCGGTC | 1.31
47 | AGTACGTATC | 1.15
48 | AGTACGTGCC | 0.981
49 | AGTACTGGGA | 0.975
50 | AGTAGAACAG | 0.965
51 | AGTAGCTCGA | 1.03
52 | AGTAGGGAA | 1.02

Row | Sequence | switch fluorescence ratio
53 | AGTAGGTCCC | 1.02
54 | AGTATAGGT | 0.963
55 | AGTATAGTGT | 0.982
56 | AGTATTAAGA | 0.977
57 | AGTATTGAGA | 0.979
58 | AGTATTGAGT | 1.01
59 | AGTCAACGAC | 0.995
60 | AGTCACATTG | 0.984
61 | AGTCACGGGG | 1.02
62 | AGTCACTGCT | 0.948
63 | AGTCAGCATG | 1.03
64 | AGTCAGTGGC | 1
65 | AGTCATGACC | 1.07
66 | AGTCCACGG | 1.07
67 | AGTCCATGTA | 0.992
68 | AGTCCCCATG | 1.21
69 | AGTCCCGCTT | 1.16
70 | AGTCCCTCGT | 1.04
71 | AGTCCGATAT | 1.01
72 | AGTCCGGCAA | 5.21
73 | AGTCCGTGTG | 1.02
74 | AGTCCTTCGA | 1.03
75 | AGTCCTTGCA | 1.09
76 | AGTCCTTTAA | 0.954
77 | AGTCGACTGC | 1.04
78 | AGTCGAGACG | 1.03

Row | Sequence | switch fluorescence ratio
79 | AGTCGATCCT | 1.03
80 | AGTCGATCGC | 1.05
81 | AGTCGCAAGT | 1.06
82 | AGTCGCCGAT | 0.997
83 | AGTCGGCAGA | 1.06
84 | AGTCGGGTC | 0.971
85 | AGTCGTAATT | 0.958
86 | AGTCTAACTA | 0.968
87 | AGTCTAGGAA | 0.988
88 | AGTCTCGGGA | 0.936
89 | AGTCTGCAA | 2.43
90 | AGTCTGCGGG | 0.997
91 | AGTCTGTAGA | 1.06
92 | AGTCTGTGAA | 1.05
93 | AGTGAACGTG | 1.01
94 | AGTGAAGTAT | 0.998
95 | AGTGACTTGC | 0.983
96 | AGTGAGATG | 1
97 | AGTGAGGGGG | 0.947
98 | AGTGATATAA | 1.02
99 | AGTGATATAT | 0.998
100 | AGTGATCATC | 0.966
101 | AGTGATCATG | 0.948
102 | AGTGATCGTT | 1.01
103 | AGTGATGCGC | 1.05
104 | AGTGCAGTAT | 0.995

Row | Sequence | switch fluorescence ratio
105 | AGTGCATCGT | 1.06
106 | AGTGCCTAAT | 1.06
107 | AGTGCTAAG | 1.02
108 | AGTGCTACAC | 1.02
109 | AGTGCTAGA | 1.07
110 | AGTGCTGTAT | 0.971
111 | AGTGGAAAAG | 1.01
112 | AGTGGACCCC | 1.01
113 | AGTGGAGCG | 1.01
114 | AGTGGAGGAG | 1.01
115 | AGTGGATTAT | 0.985
116 | AGTGGCCTAA | 0.986
117 | AGTGGCGGGC | 1
118 | AGTGGGAGTC | 1.05
119 | AGTGGGTCGT | 0.982
120 | AGTGGGTGCG | 0.991
121 | AGTGGTGACG | 0.946
122 | AGTGGTGCG | 1.03
123 | AGTGGTGCTA | 1.01
124 | AGTGGTTGAT | 0.976
125 | AGTGGTTTCT | 0.983
126 | AGTGTAAGGG | 0.979
127 | AGTGTAGACG | 1.05
128 | AGTGTAGCCG | 1.03
129 | AGTGTAGTCG | 0.938
130 | AGTGTATTCT | 0.999

Row | Sequence | switch fluorescence ratio
131 | AGTGTCAAAT | 1.01
132 | AGTGTCATGC | 0.948
133 | AGTGTCTTTT | 0.941
134 | AGTGTGCTGT | 1.02
135 | AGTGTGGCGT | 1.07
136 | AGTGTTAGG | 1.01
137 | AGTGTTGAGT | 0.976
138 | AGTGTTGGA | 1
139 | AGTTAAGGAA | 1.02
140 | AGTTACGAGA | 1.02
141 | AGTTAGACAA | 1.01
142 | AGTTAGGATT | 1
143 | AGTTAGGCTT | 0.987
144 | AGTTAGGTAA | 1.02
145 | AGTTATATAA | 1.01
146 | AGTTATGGAG | 1.02
147 | AGTTATGGCC | 1.01
148 | AGTTATTAT | 1
149 | AGTTCAGGGT | 0.979
150 | AGTTCAGTG | 1.01
151 | AGTTCATT | 0.97
152 | AGTTCATTGA | 1.02
153 | AGTTCGCCTT | 1.14
154 | AGTTCGGCGG | 1.02
155 | AGTTCTCGAA | 1
156 | AGTTCTCGCG | 1.03

Row | Sequence | switch fluorescence ratio
157 | AGTTGACAA | 0.992
158 | AGTTGACTTC | 0.967
159 | AGTTGATATT | 1
160 | AGTTGATTCC | 1.06
161 | AGTTGCAGA | 0.967
162 | AGTTGCCCAT | 0.996
163 | AGTTGCGCGG | 0.968
164 | AGTTGCTGTG | 1.01
165 | AGTTGGCTA | 1.03
166 | AGTTGGGCGA | 0.956
167 | AGTTTAGGTG | 1.08
168 | AGTTTATACG | 1.01
169 | AGTTTCACCT | 1.09
170 | AGTTTCTAGC | 0.981
171 | AGTTTCTGAA | 0.984
172 | AGTTTGCTAA | 1.01
173 | AGTTTGGAGT | 0.994
174 | AGTTTGGC | 0.952
175 | AGTTTGTGCT | 0.963
176 | AGTTTGTT | 0.991
177 | AGTTTTATC | 0.945
178 | AGTTTTCGCA | 1
179 | AGTTTTGAGT | 0.99
180 | ATAAAAAATT | 1.01
181 | ATAAAAACAA | 1.07
182 | ATAAAACTGG | 1.03

Row | Sequence | switch fluorescence ratio
183 | ATAAACAGA | 0.98
184 | ATAAACGAGG | 0.975
185 | ATAAAGACGG | 1.02
186 | ATAAAGGCT | 1.03
187 | ATAAAGGGTA | 1.03
188 | ATAAAGGTGC | 1.23
189 | ATAAAGTGGG | 0.99
190 | ATAAATCAGA | 0.996
191 | ATAAATCCCC | 1
192 | ATAAATCTCG | 1.04
193 | ATAAATGTG | 1.02
194 | ATAACCATAC | 1.37
195 | ATAACCGGGG | 1.04
196 | ATAACGAGAT | 1.04
197 | ATAACGATGG | 1.04
198 | ATAACGGCTA | 1.02
199 | ATAAGAATAG | 1.04
200 | ATAAGATGGG | 0.976
201 | ATAAGCGACT | 0.997
